Test results as given in the GPR68 mutational scans of Howard et al. (2025).

B1: GPR68, Q15743 (parent)
chain: MGNITADNSSMSCTIDHTIHQTLAPVVYVTVLVVGFPANCLSLYFGYLQIKARNELGVYLCNLTVADLFYICSLPFWLQYVLQHDNWSHGDLSCQVCGILLYENIYISVGFLCCISVDRYLAVAHPFRFHQFRTLKAAVGVSVVIWAKELLTSIYFLMHEEVIEDENQHRVCFEHYPIQAWQRAINYYRFLVGFLFPICLLLASYQGILRAVRRSHGTQKSRKDQIQRLVLSTVVIFLACFLPYHVLLLVRSVWEASCDFAKGVFNAYHFSLLLTSFNCVADPVLYCFVSETTHRDLARLRGACLAFLTCSRTGRAREAYPLGAPEASGKSGAQGEEPELLTKLHPAFQTPNSPGSGGFPTGRLA

Experiments:
[1] = variants of: B1; experiment: cAMP reporter score (Enrich2 score, wild type = 0); higher = more signal; HEK293T, FACS bins
[2] = variants of: B1; experiment: surface expression score (Enrich2 score, wild type = 0); higher = more signal; HEK293T, FACS bins

N54Q showed a cAMP reporter score ([1]; pH 5.5) of -0.548, a cAMP reporter score ([1]; pH 6) of -1.23 and a cAMP reporter score ([1]; pH 6.5, modulator: ogerin) of -2.28. It also gave a surface expression score [2] of -1.28.

Work on N54I yielded a cAMP reporter score ([1]; pH 5.5) of -1.22, a cAMP reporter score ([1]; pH 6, modulator: ogerin) of -1.41 and a cAMP reporter score ([1]; pH 6.5, modulator: ogerin) of -1.78. It also gave a surface expression score [2] of -1.73.

With N54S the cAMP reporter score ([1]; pH 5.5) was -0.913, the cAMP reporter score ([1]; pH 6) was -0.356 and the cAMP reporter score ([1]; pH 6, modulator: ogerin) was -1.1. It also gave a cAMP reporter score ([1]; pH 6.5, modulator: ogerin) of -0.845 and a surface expression score [2] of -1.4.

Variant N54D has a cAMP reporter score ([1]; pH 5.5) of -0.766, a cAMP reporter score ([1]; pH 6) of -0.348 and a cAMP reporter score ([1]; pH 6, modulator: ogerin) of -0.713. For the same variant, the cAMP reporter score ([1]; pH 6.5, modulator: ogerin) was -0.839 and the surface expression score [2] was -0.183.

With N54V the cAMP reporter score ([1]; pH 5.5) was -1.55, the cAMP reporter score ([1]; pH 6) was -0.41 and the cAMP reporter score ([1]; pH 6.5, modulator: ogerin) was -0.852. For the same variant, the surface expression score [2] was -1.71.

For N54A, the cAMP reporter score ([1]; pH 5.5) was -0.427, the cAMP reporter score ([1]; pH 6) was -1.15 and the cAMP reporter score ([1]; pH 6, modulator: ogerin) was -0.794. The cAMP reporter score ([1]; pH 6.5, modulator: ogerin) was -1.51 and the surface expression score [2] was -2.58.

N54P showed a cAMP reporter score ([1]; pH 5.5) of -1.09, a cAMP reporter score ([1]; pH 6) of -0.414 and a cAMP reporter score ([1]; pH 6, modulator: ogerin) of -1.94. For the same variant, the cAMP reporter score ([1]; pH 6.5, modulator: ogerin) was -0.856 and the surface expression score [2] was -1.77.

For N54R, the cAMP reporter score ([1]; pH 5.5) was -0.466, the cAMP reporter score ([1]; pH 6) was -0.341 and the cAMP reporter score ([1]; pH 6, modulator: ogerin) was -1.24. For the same variant, the cAMP reporter score ([1]; pH 6.5, modulator: ogerin) was -0.666 and the surface expression score [2] was -1.19.

Work on N54G yielded a cAMP reporter score ([1]; pH 5.5) of -0.723, a cAMP reporter score ([1]; pH 6) of -1.04 and a cAMP reporter score ([1]; pH 6, modulator: ogerin) of -1.41. The cAMP reporter score ([1]; pH 6.5, modulator: ogerin) was -0.781 and the surface expression score [2] was -2.21.

In the case of N54W, the cAMP reporter score ([1]; pH 5.5) is reported as -2.29, the cAMP reporter score ([1]; pH 6) is reported as -1.17 and the cAMP reporter score ([1]; pH 6, modulator: ogerin) is reported as -2.08. For the same variant, the cAMP reporter score ([1]; pH 6.5, modulator: ogerin) was -1.59 and the surface expression score [2] was -2.05.

Work on N54Y yielded a cAMP reporter score ([1]; pH 5.5) of -0.753, a cAMP reporter score ([1]; pH 6, modulator: ogerin) of -2.92 and a cAMP reporter score ([1]; pH 6.5, modulator: ogerin) of -0.462.

Work on N54F yielded a cAMP reporter score ([1]; pH 5.5) of -1.67, a cAMP reporter score ([1]; pH 6, modulator: ogerin) of -2.11 and a cAMP reporter score ([1]; pH 6.5, modulator: ogerin) of -0.511. It also gave a surface expression score [2] of -0.781.

N54K showed a cAMP reporter score ([1]; pH 5.5) of -0.474, a cAMP reporter score ([1]; pH 6) of -0.764 and a cAMP reporter score ([1]; pH 6, modulator: ogerin) of -0.88. For the same variant, the cAMP reporter score ([1]; pH 6.5, modulator: ogerin) was -0.722 and the surface expression score [2] was -1.68.

With N54C the cAMP reporter score ([1]; pH 5.5) was -0.9, the cAMP reporter score ([1]; pH 6) was -1.26 and the cAMP reporter score ([1]; pH 6, modulator: ogerin) was -0.726. For the same variant, the cAMP reporter score ([1]; pH 6.5, modulator: ogerin) was -0.448 and the surface expression score [2] was -2.01.

K51_R53del gave a cAMP reporter score ([1]; pH 5.5) of -1.51, a cAMP reporter score ([1]; pH 6) of -1.56 and a cAMP reporter score ([1]; pH 6.5, modulator: ogerin) of -1.46. It also gave a surface expression score [2] of -3.35.

For L56_G57insGSG, the cAMP reporter score ([1]; pH 5.5) was -1.88, the cAMP reporter score ([1]; pH 6) was -1.85 and the cAMP reporter score ([1]; pH 6, modulator: ogerin) was -1.03. It also gave a cAMP reporter score ([1]; pH 6.5, modulator: ogerin) of -1.48 and a surface expression score [2] of -1.98.

Work on A52_R53insG yielded a cAMP reporter score ([1]; pH 5.5) of -2.05, a cAMP reporter score ([1]; pH 6) of -0.957 and a cAMP reporter score ([1]; pH 6, modulator: ogerin) of -0.718. The surface expression score [2] was -1.85.

Variant F45_G46insGS has a cAMP reporter score ([1]; pH 5.5) of -1.55, a cAMP reporter score ([1]; pH 6) of -0.632 and a cAMP reporter score ([1]; pH 6, modulator: ogerin) of -1.41. The cAMP reporter score ([1]; pH 6.5, modulator: ogerin) was -0.341 and the surface expression score [2] was -3.

In the case of L43Y, the cAMP reporter score ([1]; pH 5.5) is reported as -0.243, the cAMP reporter score ([1]; pH 6) is reported as -0.4 and the cAMP reporter score ([1]; pH 6, modulator: ogerin) is reported as -1.8. It also gave a cAMP reporter score ([1]; pH 6.5, modulator: ogerin) of -0.775.

In the case of L43V, the cAMP reporter score ([1]; pH 5.5) is reported as -1.15, the cAMP reporter score ([1]; pH 6, modulator: ogerin) is reported as -2.02 and the cAMP reporter score ([1]; pH 6.5, modulator: ogerin) is reported as -0.746. For the same variant, the surface expression score [2] was -2.16.

Variant L43W has a cAMP reporter score ([1]; pH 5.5) of -0.807, a cAMP reporter score ([1]; pH 6) of -0.89 and a cAMP reporter score ([1]; pH 6, modulator: ogerin) of -0.967. For the same variant, the cAMP reporter score ([1]; pH 6.5, modulator: ogerin) was -1.39 and the surface expression score [2] was -2.48.

Variant L43T has a cAMP reporter score ([1]; pH 5.5) of -1.28, a cAMP reporter score ([1]; pH 6) of -0.66 and a cAMP reporter score ([1]; pH 6, modulator: ogerin) of -1.33. It also gave a cAMP reporter score ([1]; pH 6.5, modulator: ogerin) of -0.976 and a surface expression score [2] of -1.86.

In the case of Y59A, the cAMP reporter score ([1]; pH 5.5) is reported as -1.71, the cAMP reporter score ([1]; pH 6) is reported as -0.959 and the cAMP reporter score ([1]; pH 6, modulator: ogerin) is reported as -1.24. For the same variant, the cAMP reporter score ([1]; pH 6.5, modulator: ogerin) was -0.531 and the surface expression score [2] was -3.01.

For Y59H, the cAMP reporter score ([1]; pH 5.5) was -1.32, the cAMP reporter score ([1]; pH 6) was -2.02 and the cAMP reporter score ([1]; pH 6, modulator: ogerin) was -1.57. The cAMP reporter score ([1]; pH 6.5, modulator: ogerin) was -1.46 and the surface expression score [2] was -1.89.

With Y59G the cAMP reporter score ([1]; pH 5.5) was -1.72, the cAMP reporter score ([1]; pH 6) was -1.83 and the cAMP reporter score ([1]; pH 6, modulator: ogerin) was -2.17. The cAMP reporter score ([1]; pH 6.5, modulator: ogerin) was -1.35 and the surface expression score [2] was -2.55.

Y59E gave a cAMP reporter score ([1]; pH 5.5) of -1.54, a cAMP reporter score ([1]; pH 6) of -0.268 and a cAMP reporter score ([1]; pH 6, modulator: ogerin) of -2.1. It also gave a cAMP reporter score ([1]; pH 6.5, modulator: ogerin) of -0.059 and a surface expression score [2] of -1.95.

Y59F showed a cAMP reporter score ([1]; pH 5.5) of 1.46, a cAMP reporter score ([1]; pH 6) of -0.393 and a cAMP reporter score ([1]; pH 6, modulator: ogerin) of 0.691. The cAMP reporter score ([1]; pH 6.5, modulator: ogerin) was -0.191 and the surface expression score [2] was -0.915.

Y59C showed a cAMP reporter score ([1]; pH 5.5) of -0.88, a cAMP reporter score ([1]; pH 6) of -0.319 and a cAMP reporter score ([1]; pH 6, modulator: ogerin) of -0.907. The cAMP reporter score ([1]; pH 6.5, modulator: ogerin) was -0.769 and the surface expression score [2] was -0.528.

For Y59I, the cAMP reporter score ([1]; pH 5.5) was -1.37, the cAMP reporter score ([1]; pH 6) was -1.25 and the cAMP reporter score ([1]; pH 6, modulator: ogerin) was -1.23. The cAMP reporter score ([1]; pH 6.5, modulator: ogerin) was -1.19 and the surface expression score [2] was -3.32.

For Y47del, the cAMP reporter score ([1]; pH 5.5) was -1.9, the cAMP reporter score ([1]; pH 6) was -1.83 and the cAMP reporter score ([1]; pH 6, modulator: ogerin) was -1.16. It also gave a cAMP reporter score ([1]; pH 6.5, modulator: ogerin) of -1.95 and a surface expression score [2] of -2.21.

L43_F45del showed a cAMP reporter score ([1]; pH 5.5) of -1.25, a cAMP reporter score ([1]; pH 6) of -0.92 and a cAMP reporter score ([1]; pH 6, modulator: ogerin) of -0.603. It also gave a cAMP reporter score ([1]; pH 6.5, modulator: ogerin) of -0.994 and a surface expression score [2] of -2.47.

For V58_Y59del, the cAMP reporter score ([1]; pH 5.5) was -1.33, the cAMP reporter score ([1]; pH 6.5, modulator: ogerin) was -0.907 and the surface expression score [2] was -2.26.

Scores whose standard error is large were omitted. Two further conditions of the source, in which the scores hardly spread, are not listed. Names with del lack the residues named; names with ins carry added residues between the positions named. For some of these results: How much ogerin was present is not stated here.
